Measurements reported in PMC4336329 (PLoS ONE, 2015).
The campaign covered roughly 310,000 compounds. About 14,000 (4.5%) showed an effect of 50% or more. Effects have a minus sign here. This is one part of the list.

What follows are compounds tested against human ether-à-go-go-related gene (hERG) potassium channel (human, UniProt Q12809) (assay: primary screen, population patch clamp on CHO cells stably expressing hERG).
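Note: peak tail current of the secondary pulse compared with the same well before compound.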

Sequence of human ether-à-go-go-related gene (hERG) potassium channel (Q12809 whole entry, looked up): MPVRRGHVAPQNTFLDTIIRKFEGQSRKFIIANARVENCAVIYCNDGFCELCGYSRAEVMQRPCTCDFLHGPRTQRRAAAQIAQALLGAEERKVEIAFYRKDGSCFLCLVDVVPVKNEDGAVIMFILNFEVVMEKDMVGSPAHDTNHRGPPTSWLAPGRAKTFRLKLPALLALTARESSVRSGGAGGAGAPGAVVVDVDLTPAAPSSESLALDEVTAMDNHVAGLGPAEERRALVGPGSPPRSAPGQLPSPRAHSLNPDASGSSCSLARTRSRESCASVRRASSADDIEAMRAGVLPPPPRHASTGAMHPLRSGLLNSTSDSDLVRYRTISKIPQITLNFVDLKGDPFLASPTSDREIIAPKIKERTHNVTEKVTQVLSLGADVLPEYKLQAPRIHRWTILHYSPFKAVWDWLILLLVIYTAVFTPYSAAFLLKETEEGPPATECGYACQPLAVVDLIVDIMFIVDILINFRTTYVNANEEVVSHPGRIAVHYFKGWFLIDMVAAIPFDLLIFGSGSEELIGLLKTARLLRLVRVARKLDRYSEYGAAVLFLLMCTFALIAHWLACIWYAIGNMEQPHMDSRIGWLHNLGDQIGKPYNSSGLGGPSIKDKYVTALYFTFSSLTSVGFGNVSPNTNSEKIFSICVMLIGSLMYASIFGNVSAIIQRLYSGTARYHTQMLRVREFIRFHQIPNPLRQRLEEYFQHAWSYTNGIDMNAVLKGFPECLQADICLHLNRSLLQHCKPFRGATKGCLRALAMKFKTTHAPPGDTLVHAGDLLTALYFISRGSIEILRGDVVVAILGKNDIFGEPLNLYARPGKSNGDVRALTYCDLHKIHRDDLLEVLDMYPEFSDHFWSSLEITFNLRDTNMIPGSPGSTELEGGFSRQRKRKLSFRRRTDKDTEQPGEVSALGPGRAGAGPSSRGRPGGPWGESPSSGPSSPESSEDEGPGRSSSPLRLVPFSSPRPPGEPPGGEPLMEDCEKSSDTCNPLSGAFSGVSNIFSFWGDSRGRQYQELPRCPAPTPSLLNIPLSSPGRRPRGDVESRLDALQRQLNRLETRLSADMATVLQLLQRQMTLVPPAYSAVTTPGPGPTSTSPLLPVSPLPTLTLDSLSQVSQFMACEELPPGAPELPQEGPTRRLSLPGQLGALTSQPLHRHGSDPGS

SMILES	hERG current change (%, negative = inhibition) at 10uM
CC(C)=CCN1CCN(Cc2cccn2-c2ncccn2)CC1CCO (stereo not drawn)	-39.6%
COc1ccc(NC(=O)c2csc(C)c2)cc1OC	9.55%
CCOC(=O)c1sc(-c2ccccc2)cc1NC(=O)Nc1ccccc1	9.44%
COc1cc(/C=N/NC(=O)c2ccc3c(c2)OCO3)ccc1O	-10.5%
CC(O)c1nc2ccccc2n1C1CCCCC1 (stereo not drawn)	-4.64%
Nc1c(C(=O)O)cnn1-c1ccc([N+](=O)[O-])cc1	24.3%
CCOC(=O)c1ccc(CNC(=O)CCC(=O)O)cc1	4.15%
COCCn1c(SCC(=O)NC2CCCC2)nnc1C(C)C	22.6%
Cc1ccc2cc(CN(CC3CCCO3)C(=S)NCc3ccco3)c(=O)[nH]c2c1 (stereo not drawn)	11.1%
O=S(=O)(c1ccc(NC(=S)NCCc2ccccc2)cc1)N1CCOCC1	-6.2%
CCCc1nnc(NC(=O)CCC(=O)N2CCCCC2)s1	-1.96%
Cc1ccccc1C(=O)NC(=S)NCc1cccnc1	31.9%
Cc1cnc(NC(=O)c2cccc(S(=O)(=O)N3CC(C)OC(C)C3)c2)s1 (stereo not drawn)	-18.8%
Cc1ccc(-n2ncc3c2CCCC3NC(=O)CCc2cnccn2)cc1C (stereo not drawn)	-15.1%
Cc1ccccc1NC(=O)NNC(=O)COc1ccc2ccccc2c1	8.93%
CCOc1ccc2c(c1)c1nnc(SCC3CCCO3)nc1n2C (stereo not drawn)	-40.8%
Cc1sc2nc(COC(=O)c3ccc(N4CCCC4)c([N+](=O)[O-])c3)[nH]c(=O)c2c1C	1.46%
CN(CCO)c1nc(N)c2c(N)nc3c(c2c1C#N)CC(=O)N3Cc1cccs1	-29.6%
CNc1nc(Cl)c(SC)c(NC2CCCCC2)n1	4.19%

SMILES	hERG current change (%, negative = inhibition) at 10uM
CCn1ccnc1CN(C)Cc1nc(-c2cccc(Cl)c2)no1	-44.1%
CC(C)(C)OC(=O)N1CCCC1C(=O)O (stereo not drawn)	26.5%
Cn1c(SCC(=O)Nc2ccc(N3CCOCC3)cc2)nnc1C1CC1	7.98%
O=C(CCS(=O)(=O)c1ccccc1F)Nc1ccc(N2CCN(Cc3ccccc3)CC2)cc1	9.6%
CC(=O)C1=C(C)NC(SCC(=O)c2ccc(F)cc2)=C(C#N)C1CC(C)C (stereo not drawn)	16.3%
CC(C)(O)C(=O)NN(Cc1ccccc1)c1ccccc1	16.2%
CCO[C@H]1OC(C(=O)N2CCN(Cc3ccc4c(c3)OCO4)CC2)=C[C@@H](c2csc3ccccc23)[C@@H]1CCCO	13.1%
CC(Cc1cccs1)NC(=O)Nc1ccc(Cl)c(Cl)c1 (stereo not drawn)	19.8%
O=C(C1=C(O)C(=O)N(CC2CCCO2)C1c1ccccc1[N+](=O)[O-])c1ccco1 (stereo not drawn)	15.8%
O=S(=O)(Nc1nc(-c2ccccc2)cs1)c1cccc(C(F)(F)F)c1	17.4%
CCn1c(SC/C=C/c2ccccc2)nnc1-c1cnccn1	-14.7%
CN(CC(=O)Nc1cccc(F)c1)CC(=O)Nc1cccc(S(=O)(=O)N2CCCCC2)c1	-19.6%
COc1cc(C(=O)OCC(=O)N2CCN(C(C)=O)CC2)ccc1OCC(C)C	15.4%
O=C(c1cc(COc2c(F)cccc2F)on1)N1CCCCCC1	4.46%
CCOC(=O)CSc1nc2ccc(NC(C)=O)cc2s1	-0.523%
CCCOc1cccc(OCC(=O)Nc2nc3ccccc3[nH]2)c1	17.4%
CC(=O)Nc1ccc(NC(=O)C(C)Sc2nc3ccccc3c(=O)n2CC2CCCO2)cc1 (stereo not drawn)	7.41%
Cc1ccc(N2C(=O)NC(C(F)(F)F)(C(F)(F)F)C3=C2CC(C)(C)CC3=O)cc1	5.75%
COc1ccc(-n2nnc3c(=O)n(CC(=O)Nc4cc(C)on4)cnc32)cc1	12.6%

SMILES	hERG current change (%, negative = inhibition) at 10uM
CCOC(=O)/C(C#N)=C1/SC(CCO)C(=O)N1c1ccccc1 (stereo not drawn)	21.2%
O=C(CSc1nnnn1C1CCCCC1)N1CCCC1	-2.5%
N#C/C(=C\c1ccc(-c2ccc(Br)cc2)o1)C(=O)NCCc1c[nH]c2ccccc12	21%
CC(C)=CC(=O)Nc1ccc(S(=O)(=O)Nc2ccccn2)cc1	-5.94%
O=C(CN(C1CCCCC1)S(=O)(=O)c1ccc(F)cc1)NCCCO	1.65%
Nc1ccc(-c2cc(-c3ccc(N)cc3)nc(-c3ccccc3)n2)cc1	11.8%
CCc1ccccc1NC1=NCC(=O)N1Cc1ccc2c(c1)OCO2	-12.6%
Cl.Nc1ccc2c(c1)oc1ccccc12	4.15%
O=C(Cn1nnc(-c2ccccc2)n1)Nc1cccc(S(=O)(=O)N2CCOCC2)c1	-56.2%
CCOC(=O)C1CCN(C(=O)CCc2nc3sc4c(c3c(=O)[nH]2)CCCC4)CC1	-2.9%
CCOC(=O)c1ccc(NC(=O)CSc2nc3cccnc3n2C)cc1	1.32%
C#CCN(Cc1ccco1)C(=O)c1ccc(OC2CCN(Cc3ccccn3)CC2)cc1	-66.9%
CCOC(=O)N1CCN(C(=O)CSc2nnc3[nH]c(=O)c(C)c(C)n23)CC1	3.06%
O=C(COC(=O)CCc1c[nH]c2ccccc12)Nc1ccccc1C(F)(F)F	-5.09%
COc1cc(C(=O)Nc2ccc3c(c2)OCCO3)ccc1-n1cnnn1	22.4%
CC1CCN(CCCNC(=O)CN2CCN(Cc3ccc(Cl)cc3)C2=O)CC1	-55.2%
Cc1cc(-c2ccc(C)c(S(=O)(=O)NCCc3ccco3)c2)on1	-34.1%
COc1ccc(OC)c(-c2cc(C(=O)Nc3ccc(F)cc3F)no2)c1	5.05%
O=C(/C=C/c1cccs1)Nc1ccncc1	12.8%
